# Assay results published in the antibiotic and cytotoxicity screens of Wong et al. (2023).
# This is one part of the list.
# Test system: HSkMC (human skeletal muscle cells)
# Assay: cytotoxicity call (relative viability < 0.9)
# Settings: 10 µM
row,SMILES,cytotoxicity call
1,CC(C)c1onc(-c2c(Cl)cccc2Cl)c1COc1ccc(/C=C/c2cccc(C(=O)O)c2)c(Cl)c1,inactive
2,CN(C)CC[C@H](CSc1ccccc1)Nc1ccc(S(=O)(=O)NC(=O)c2ccc(N3CCN(Cc4ccccc4-c4ccc(Cl)cc4)CC3)cc2)cc1[N+](=O)[O-],inactive
3,COc1ccc(S(=O)(=O)N(C)C[C@@H]2Oc3ccc(NC(=O)Cc4ccccc4)cc3CC(=O)N([C@H](C)CO)C[C@@H]2C)cc1,inactive
4,CC(C)NC(=O)N(C)C[C@H]1Oc2c(NC(=O)C3CCOCC3)cccc2C(=O)N([C@H](C)CO)C[C@H]1C,inactive
5,C[C@H]1CCCCO[C@@H](CN(C)Cc2ccncc2)[C@@H](C)CN([C@@H](C)CO)C(=O)c2cc(NS(C)(=O)=O)ccc2O1,inactive
6,O=C(C[C@H]1CC[C@@H](NC(=O)C2CC2)[C@H](CO)O1)NCCCN1CCOCC1,inactive
7,C[C@H]1CN([C@@H](C)CO)C(=O)c2ccccc2-c2ccccc2CO[C@@H]1CN(C)S(=O)(=O)c1cn(C)cn1,inactive
8,Cc1noc(C)c1NC(=O)Nc1ccc2c(c1)CC(=O)N([C@H](C)CO)C[C@H](C)[C@@H](CN(C)C(=O)Nc1cccc3ccccc13)O2,inactive
9,Cc1noc(C)c1S(=O)(=O)N(C)C[C@H]1Oc2ccc(NS(=O)(=O)c3ccc(Cl)cc3)cc2CC(=O)N([C@H](C)CO)C[C@@H]1C,inactive
10,Cc1ccc(S(=O)(=O)N(C)C[C@H]2Oc3ccc(NS(=O)(=O)c4c(C)noc4C)cc3C(=O)N([C@H](C)CO)C[C@@H]2C)cc1,inactive

# Test system: HepG2
# Assay: cytotoxicity call (relative viability < 0.9)
# Settings: 10 µM
row,SMILES,cytotoxicity call
1,C[C@H](CO)N1C[C@H](C)[C@@H](CN(C)S(C)(=O)=O)OCCCC[C@H](C)Oc2ccc(NS(=O)(=O)c3cn(C)cn3)cc2C1=O,inactive
2,COc1ccc(CN(C)C[C@@H]2Oc3c(NC(=O)c4cc(C)nn4C)cccc3C(=O)N([C@H](C)CO)C[C@H]2C)cc1,inactive
3,Cl.c1ccc(CC2=NCCN2)cc1,inactive
4,Cc1ccc(S(=O)(=O)N[C@@H]2CC[C@@H](CC(=O)N3CCC(Cc4ccccc4)CC3)O[C@H]2CO)cc1,inactive
5,C[C@@H]1CN([C@H](C)CO)C(=O)c2cc(N(C)C)ccc2O[C@@H]1CN(C)S(C)(=O)=O,inactive
6,CC(C)(C)c1cc(CCC(=O)OCC(COC(=O)CCc2cc(C(C)(C)C)c(O)c(C(C)(C)C)c2)(COC(=O)CCc2cc(C(C)(C)C)c(O)c(C(C)(C)C)c2)COC(=O)CCc2cc(C(C)(C)C)c(O)c(C(C)(C)C)c2)cc(C(C)(C)C)c1O,inactive
7,CC(C)NC(=O)Nc1cccc2c1O[C@@H](CN(C)Cc1ccc(Oc3ccccc3)cc1)[C@@H](C)CN([C@H](C)CO)C2=O,inactive
8,Cc1cc(C)n2nc(CCCO)nc2n1,inactive
9,COc1ccc(S(=O)(=O)N(C)C[C@@H]2OCCCC[C@@H](C)Oc3ccc(NS(=O)(=O)c4ccc(Cl)cc4)cc3C(=O)N([C@@H](C)CO)C[C@H]2C)cc1,active
10,COc1ccc(S(=O)(=O)N(C)C[C@@H]2Oc3ncc(-c4ccccc4)cc3C(=O)N([C@H](C)CO)C[C@@H]2C)cc1,inactive
11,C[C@H]1CN([C@@H](C)CO)C(=O)c2cccc(NC(=O)c3cnccn3)c2O[C@@H]1CN(C)C(=O)Nc1ccc2c(c1)OCO2,inactive
12,C[C@@H]1CN([C@H](C)CO)C(=O)c2cccc(NC(=O)C3CCOCC3)c2O[C@H]1CN(C)Cc1ccc(-c2ccccc2)cc1,inactive
13,C[C@@H]1CCCCO[C@H](CN(C)Cc2ccc(C(=O)Nc3ccccc3N)cc2)[C@@H](C)CN([C@H](C)CO)C(=O)c2cc(NC(=O)c3ccccc3)ccc2O1,active
14,C[C@H](CO)N1C[C@H](C)[C@@H](CN(C)C(=O)CN(C)C)Oc2ncc(-c3ccc(C(=O)N(C)C)cc3)cc2C1=O,inactive
15,S=c1ccss1,inactive
16,Cc1noc(C)c1NC(=O)N(C)C[C@H]1OCCCC[C@H](C)Oc2ccc(NC(=O)C3CCCCC3)cc2C(=O)N([C@@H](C)CO)C[C@H]1C,inactive
17,COc1cc([C@@H]2c3cc4c(cc3[C@@H](O[C@@H]3O[C@@H]5CO[C@@H](C)O[C@H]5[C@H](O)[C@H]3O)[C@H]3COC(=O)[C@H]23)OCO4)cc(OC)c1O,active
18,C[C@@H]1CN([C@@H](C)CO)C(=O)Cc2cc(NC(=O)CCC(F)(F)F)ccc2O[C@@H]1CN(C)C(=O)Nc1cccc2ccccc12,inactive
19,C=CCC[C@H](Cc1ccc(F)cc1)C(=O)O[C@@H](CNC(=O)[C@@H](CC=C)CC(=O)N[C@@H](CO)Cc1ccccc1)c1ccccc1,inactive
